Results reported in PubChem BioAssay (NCI).
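Compound exposure: 48 hours, 5 concentrations, 96-well plates. GI50: concentration for 50% inhibition of growth. TGI: total growth inhibition.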

Tested on: NCI-H322M lung
Assay: NCI-60 cell line screen, 48 h

Structure (SMILES)	GI50	TGI
ClC(Cl)c1nc(-c2cccs2)n2nc(-c3ccccc3)cc2n1	460 nM	1900 nM
COC[C@]12CCC(C)(C)C[C@H]1C1=CC[C@@H]3[C@@]4(C)CCCNC(C)(C)[C@@H]4CC[C@@]3(C)[C@]1(C)CC2	1640 nM	3060 nM
